Test results published in the RNAGym collection of RNA variant scans (doi:10.1093/nar/gkz1192).
Read counts are not given, so values of variants with three or more changes are uncertain.

B1: CPEB3 Ribozyme (parent)
chain: UAACAGGGGGCCACAGCAGAAGCGUUCACGUCGCAGCCCCUGUCAGAUUCUGGUGAAUCUGCGAAUUCUGCUGUAUAUCUC

Variants of: B1
Assay: self-cleavage, relative activity (ratio to wild type); higher = more cleavage; in vitro, sequencing
How it was run: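 Relative activity was defined as the cleaved/total read fraction for a variant divided by the same fraction for the unmutated ribozyme. CPEB3 self-cleaving ribozyme libraries were made by rounds of error-prone PCR, barcoded, and transcribed in vitro with T7 RNA polymerase for 5 hours at 37°C, and cleavage ran through transcription plus a 15 min DNase I step before EDTA. Illumina sequencing of template-switched reverse transcripts gave the reads, and DNA sequencing mapped the barcodes. Averages come from three batches, using variants with at least 5 reads.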

Row | Variant | self-cleavage
1 | G8A U49A A56G U58A | 0.07
2 | G8A U54C A56U C59A U69C U72C U80C | 0.06
3 | G8A U60C U67C G73U C79A | 0
4 | G8A U72A A77U | 0.05
5 | G8A U72C U80A | 0.43
6 | G8C A13U U80A | 0.26
7 | G8C A15G A21G A47G U51A U58A U60C | 0.06
8 | G8C A18G A20G U43C A64G U69G U72C | 0.18
9 | G8C A20G A47G U49A U69C | 0.14
10 | G8C A20G U60A A65G | 0.12
11 | G8C A21G U41A | 0.4
12 | G8C A28G G30A U31A U69A | 0.06
13 | G8C A45G U48G U72A | 0.04
14 | G8C A57G U60A U72C U78C | 0.1
15 | G8C A57G U78A | 0.3
16 | G8C C11U C62U | 0.08
17 | G8C C12U A20C G36A U67C | 0.07
18 | G8C C12U U26C A56G U58C | 0.07
19 | G8C G10U G16U U26C C29U A65G | 0.04
20 | G8C G19A A57G U69G | 0.18
21 | G8C G30A U78C | 0.33
22 | G8C U26C A64G | 0.07
23 | G8C U43C U66G U67G | 0.16
24 | G8C U48C U54A U58C U69A | 0.1

Row | Variant | self-cleavage
25 | G8C U49C C68U | 0.13
26 | G8C U49C U54A | 0.36
27 | G8U A13G A15U A45U U48C U51C A64G | 0.06
28 | G8U A13G A18U U31A U72C U76C | 0.04
29 | G8U A13G C17U C34G A47G U51A U67C | 0.03
30 | G8U A13G C40U U49A U51C U72C U80C | 0.15
31 | G8U A13U A35U U67C U72C | 0.05
32 | G8U A13U U48C U60C U67C A75U | 0.05
33 | G8U A15G A21C A35G G52C U74C U80C | 0.05
34 | G8U A15G A28U A45G A56G C59A | 0.04
35 | G8U A15G U26C U31A U67A U72C U76A | 0.03
36 | G8U A15G U41C U43C G52C A64G | 0.06
37 | G8U A15U A20U U25A | 0.06
38 | G8U A15U U54C U69C | 0.1
39 | G8U A18G U51C | 0.16
40 | G8U A18U A35C A56G | 0.05
41 | G8U A18U A65G | 0.12
42 | G8U A18U G24A U26C U78C | 0.06
43 | G8U A20G U26C A28G G30A | 0.05
44 | G8U A20G U41G U48C U51A A64G A75G | 0.03
45 | G8U A20U A35U | 0.15
46 | G8U A21G G24U A28G A75U U80C | 0.04
47 | G8U A21G G30A C50A | 0.05
48 | G8U A21G U60C | 0.16

Row | Variant | self-cleavage
49 | G8U A21G U60C C62G U74A U80G | 0.03
50 | G8U A21U U41C A47G | 0.12
51 | G8U A28C U69C | 0.25
52 | G8U A28G U31A A35U U54A U74A U76C | 0.04
53 | G8U A28U A64G C71U | 0.09
54 | G8U A35U U43C U48C U60C | 0.33
55 | G8U A45G A64G G70C | 0.08
56 | G8U A45G C50U U58C U78C | 0.07
57 | G8U A47G U74C | 0.05
58 | G8U A56G A57G | 0.06
59 | G8U A57G U60A C62U | 0.14
60 | G8U C11A A13G | 0.06
61 | G8U C11U U31C U41C U49A | 0.18
62 | G8U C11U U48C A57G | 0.06
63 | G8U C14U A21G C23A U69A | 0.16
64 | G8U C17G A18G U51C A64C C71A U74C | 0.03
65 | G8U C17U U49C | 0.32
66 | G8U C37U A65C U76C | 0.04
67 | G8U C40U A45U U49A U78A U80A | 0.03
68 | G8U C40U U78C | 0.06
69 | G8U G9A A21G U76A U80C | 0.04
70 | G8U G16C A35U C62U U76A | 0.05
71 | G8U G22A A35G U49C | 0.11
72 | G8U G22A U26C U51A | 0.12

Row | Variant | self-cleavage
73 | G8U G30C U54C | 0.09
74 | G8U G33U U69A | 0.06
75 | G8U U25A A45U U54A U72C | 0.08
76 | G8U U25A U51G G61C C62U | 0.06
77 | G8U U25C A45G A47G U78C U80A | 0.04
78 | G8U U25C A56U | 0.07
79 | G8U U25G A64G U80C | 0.04
80 | G8U U26C U67C A77G | 0.07
81 | G8U U31C A35G | 0.17
82 | G8U U31C U48C U54C U69C | 0.05
83 | G8U U49A U69A | 0.18
84 | G8U U51A A64G | 0.12
85 | G8U U54C A57G | 0.32
86 | G8U U54C U58A | 0.07
87 | G8U U66A A77G | 0.4
88 | G8U U69A U72A | 0.1
89 | G8U U74A A75G | 0.12
90 | G9A A13C U41A A56U | 0.29
91 | G9A A13G A28U G33A U49C G52A U69C | 0.05
92 | G9A A13G C29U A64G | 0.07
93 | G9A A13G C39U C44A U54A | 0.3
94 | G9A A13G G33A C39U U78C | 0.05
95 | G9A A13G U25A A35U A75U | 0.09
96 | G9A A13U C23G G30A U31A A45U | 0.03

Row | Variant | self-cleavage
97 | G9A A13U U41C | 0.29
98 | G9A A15G A57G U67G U78C | 0.08
99 | G9A A15G A65G A75U | 0.07
100 | G9A A15G U25C U31C C32U U49C U74G | 0.04
101 | G9A A15G U41C A45G U72G | 0.1
102 | G9A A15U A28G U41A A47U | 0.05
103 | G9A A15U C34A A35G | 0.17
104 | G9A A15U U25A | 0.06
105 | G9A A15U U31A U48C | 0.24
106 | G9A A15U U54A A64G | 0.06
107 | G9A A18G A20G C40U U78C | 0.07
108 | G9A A18G A20G G36C U41C C79U | 0.34
109 | G9A A18G A21G C32A | 0.27
110 | G9A A18G U26C A28G U31C | 0.06
111 | G9A A18G U54C A77U | 0.09
112 | G9A A18U A21G U41C A57G U67C A75G | 0.04
113 | G9A A18U A64G U66C | 0.05
114 | G9A A18U C29U U31A C37G C40U | 0.04
115 | G9A A18U C50U C59U | 0.03
116 | G9A A18U G61A U80C | 0.22
117 | G9A A18U U26C U41C U43C U54C U78C | 0.06
118 | G9A A20C U66C | 0.12
119 | G9A A20G A28G A35G U43C A56U U74A | 0.01
120 | G9A A20G A35C U60C U66C U72C | 0.04

Row | Variant | self-cleavage
121 | G9A A20G A57U | 0.33
122 | G9A A20G C32U U41C | 0.21
123 | G9A A20G U25C U67C U74C | 0.28
124 | G9A A20G U26C G36C U54G G73A | 0.04
125 | G9A A20G U26G A57G | 0.08
126 | G9A A20G U67C G73A | 0.76
127 | G9A A20U U51A | 0.25
128 | G9A A21G A28G U43C | 0.26
129 | G9A A21G A35G U43A U60C C62U U78G | 0.12
130 | G9A A21G C44U U72C U74C | 0.05
131 | G9A A21G U26C G63U | 0.09
132 | G9A A21G U41A A65G | 0.04
133 | G9A A21G U41C A57G U67C | 0.1
134 | G9A A21G U49C U72C | 0.24
135 | G9A A28C U43A | 0.06
136 | G9A A28G A57G | 0.06
137 | G9A A28U U49C | 0.27
138 | G9A A35G A47C U48C A64G C81A | 0.4
139 | G9A A35G C71A U80C | 0.31
140 | G9A A35G U66A | 0.14
141 | G9A A35U A45C A56G U60C | 0.05
142 | G9A A35U U43A A47G U49C U60C A64U | 0.04
143 | G9A A45C U72A | 0.12
144 | G9A A45G A56G U67C | 0.04

Row | Variant | self-cleavage
145 | G9A A45G G52A U58C | 0.13
146 | G9A A47G C62U U76A | 0.03
147 | G9A A47U A57U | 0.43
148 | G9A A47U U69G | 0.18
149 | G9A A56G U74C A75G | 0.12
150 | G9A A56U A57G | 0.24
151 | G9A A57G A64U | 0.14
152 | G9A A65G U72C | 0.08
153 | G9A C11G A57G | 0.09
154 | G9A C11G C37U A57U U78C | 0.04
155 | G9A C12G A18U U31C G33A U51A U80C | 0.03
156 | G9A C12G U26A U43A A47G U72A | 0.04
157 | G9A C14U A47U U66C | 0.06
158 | G9A C14U U25C G63C U72A | 0.07
159 | G9A C17G U41A U67G U80C | 0.06
160 | G9A C17G U41A U80C | 0.15
161 | G9A C23G U66C | 0.07
162 | G9A C23U U49C C68U A77U | 0.05
163 | G9A C27A U43A G73A | 0.06
164 | G9A C29A U31C U41C A64G U80C | 0.06
165 | G9A C29G U54C U78C | 0.16
166 | G9A C32U U80C | 0.04
167 | G9A C38G A56G U67C U72C | 0.05
